The RNAGym collection of RNA variant scans (doi:10.7554/elife.90254)
Read counts are not given, so values of variants with three or more changes are uncertain.

B1: LINE1-mini (parent)
chain: GGCAGAGCUCAACACAGCGUGGCAAAGUGGCUGUGGCUAGACUGCC

Variants of: B1
Experiment: self-cleavage, relative activity (ratio to wild type); higher = more cleavage; in vitro, sequencing; the parent is a self-cleaving ribozyme

Row | Variant | self-cleavage
1 | A4G C15A A16G C31U | 0.15
2 | A4G G5A C42U | 0.45
3 | A4U U9C C23U U28C U38G | 0.01
4 | A4U C8U U20C C46U | 0.02
5 | A4U A11U A12G G35U | 0.03
6 | A4G G17A U28G C31U | 0.15
7 | A4U U9G G19U G36U C45U C46A | 0.14
8 | A4U C18G G40A U43A | 0.02
9 | A4G G19A G36U | 0.04
10 | A4U C13U A14C G29C G36U C37G | 0.08
11 | A4G G5U U9A C13A | 0.6
12 | A4U G7A C13U U38A | 0.09
13 | A4U U9C A12G G22A | 0.01
14 | A4U A25G C46A | 0.13
15 | A4U G22C U38C | 0.05
16 | A4U U9C A24C G36C U38C | 0
17 | A4G G5U A16C G22A | 0.08
18 | A4U G7C G21C | 0.1
19 | A4U A14C C45A | 0.1
20 | A4U C18G U28A | 0.07
21 | A4U G40U U43C | 0.05
22 | A4G U9G A25U | 0.27
23 | A4U G27C U43G C45A | 0.31
24 | A4U C37U A39G | 0.03

Row | Variant | self-cleavage
25 | A4U G19A A24U | 0.1
26 | A4U U20G A25G U28G | 0.01
27 | A4G G7U A24C G30U | 0.03
28 | A4U G5A A12U A26G | 0.13
29 | A4G G27A A39C G40C | 0.02
30 | A4U G40U G44U | 0.18
31 | A4U C8A A16U | 0.12
32 | A4U A6U U28A U34A | 0.06
33 | A4G G7U A16C U34G | 0.06
34 | A4U C10A C23A A24C G30A G40A | 0.03
35 | A4U G7U A25C | 0.05
36 | A4U C8U G17C A41G U43C | 0.03
37 | G5A A6G G22A C23A | 0.04
38 | A4G C18A G33C C42A | 0.29
39 | G5A A6U C8G A41G U43A | 0.04
40 | A4G U32G G35U | 0.09
41 | A4U C15G A16C G30U C37A A39U | 0.1
42 | G5A A6U A24U | 0.1
43 | A4U A11G A25U C31U | 0.03
44 | A4U A6U G7C C18A G44U | 0.04
45 | A4U A12U C15U G30C G40U C46G | 0.04
46 | A4U A14G A16C G17C C37G C45A | 0.24
47 | A4U U9A G19A G35U | 0.39
48 | A4G G17U C31U | 0.07

Row | Variant | self-cleavage
49 | G5A A6G G40U | 0.22
50 | A4U A11U A41C C46A | 0.01
51 | A4U C8A C31U C37A | 0.13
52 | A4U C18A U43C | 0.08
53 | A4U G7C A14C A41U | 0.07
54 | A4U G29C A41C | 0.05
55 | G5A A11C A16U G17C C31U A41C | 0
56 | A4G G29C G35C U43A | 0.04
57 | A4G C18U A24U | 1.04
58 | A4U C15G G22A G35A | 0.02
59 | A4U C10G C13U A14U | 0.05
60 | A4G U20A G27C G44C | 0.01
61 | A4U C13G A26C C45G | 0.09
62 | A4U U34G G35U | 0.05
63 | A4U G30U U38C | 0.03
64 | A4U G17U G36A | 0.04
65 | A4U A6C G36C C45A | 0.04
66 | A4U C15U C23A G29U | 0.1
67 | A4U G17C C37G G40A C45A | 0.01
68 | A4U C8U C10G U20C G40A U43C | 0.01
69 | A4U U20G C23U G27C U38G | 0.01
70 | G5A A6G G29U | 0.13
71 | A4U G22C G35C | 0.08
72 | A4G G21C G36U | 0.14

Row | Variant | self-cleavage
73 | A4U C8U G21C G35A | 0.47
74 | A4G G19U G29C G44C C45A | 0.02
75 | A4U C8A U9G | 0.32
76 | A4U C13U G27C G29C C31A C42U | 0.15
77 | A4U C10U C13U G35U C37A A39C | 0.03
78 | A4U U9C C10G G17U U32A G33A U38A | 0.01
79 | A4G C18G G44A | 0.01
80 | A4G G17A G40A | 0
81 | A4U C8A C45A | 0.32
82 | A4U G5A U20A | 0.03
83 | A4G U28G G33A C37A | 0.05
84 | A4U G7U A11G A14C C23A G30A C31U C42G | 0.01
85 | A4G C18A U34A C37A | 0.02
86 | A4G U20C G40U | 0.09
87 | A4G G7A C15U A41U | 0.16
88 | A4U A24C C46G | 0.04
89 | A4U C23G G35C A39U | 0.09
90 | A4U C8A G33U C37A | 0.17
91 | A4U G21U A26U A39C G40A | 0.08
92 | A4U A11C C31G | 0.02
93 | A4U A11C C31A | 0
94 | A4U A12U C15A U32G | 0.03
95 | A4U C23G A24G G33A | 0.02
96 | A4U C8U A14G A16U C37U | 0.01

Row | Variant | self-cleavage
97 | A4U U20C C46G | 0.06
98 | G5A A6C U20C | 0.26
99 | A4U G27U G33U A39U | 0.04
100 | A4G C23G U28G | 0.33
101 | A4U C15A U20A A41G G44C | 0.01
102 | A4U C15U U28C | 0.16
103 | A4U A16U G22U G27A C37U C42G | 0.18
104 | A4G G5U G19A C37G U38A | 0.05
105 | A4G G7U A12C | 0.03
106 | A4U C10G A16G C18G C46A | 0.03
107 | A4U C23G G44U | 0.1
108 | A4U C18A C31U G36U G40U | 0.01
109 | A4G G5U G17U | 0.03
110 | A4U A16U U34G U38G | 0
111 | A4U G5A C23U G29U G36C G44A | 0.04
112 | A4U C10A A26U G29C | 0.02
113 | A4U C23A U28A | 0.19
114 | A4G G33U G35U | 0.07
115 | A4G U28A G35C A39G | 0.05
116 | A4G U9G C10A A16U G17A G35C G36A | 0.03
117 | A4G C18G A24C | 0.12
118 | A4U G5A C15G G29A | 0.03
119 | A4U C10G C15A A39C | 0.03
120 | A4U A16G G21A A26C | 0.06

Row | Variant | self-cleavage
121 | G5A A6U G19A U28C G30C | 0.01
122 | A4U G7C A16G G33U | 0.01
123 | A4U U20C U28C | 0.05
124 | A4U G21C G30A U32G G33A | 0.02
125 | A4G C15A G21A | 0.03
126 | A4U C15G G29C G33C | 0.29
127 | A4U C8U U34G | 0.04
128 | A4U A12C G30U | 0.02
129 | A4G G30U C31A G40U | 0.51
130 | A4U A25G C37A U38C | 0.03
131 | G5A A6C A12G U32A G40U | 0.03
132 | A4G G21U C42A | 2.27
133 | A4U A12U C37G G40U | 0.01
134 | A4U G19U G21A | 0.09
135 | A4U U38A C46A | 0.02
136 | A4U U9G G27U C31A U34A G44A | 0.01
137 | A4G C15G G21U G22U G27C G29A | 0.01
138 | A4U G22A A39G | 0.1
139 | A4G G7C A26C | 0.11
140 | A4G C23A A25C C37A G40U | 0.2
141 | A4G G7A C10A A14U | 0.01
142 | A4U U9A C18A G40A | 0.24
143 | A4U C18A U28A | 0.44
144 | A4U G5U G40U A41U C46U | 0.46

Row | Variant | self-cleavage
145 | A4U A14G G22A C45U | 0.15
146 | A4U C15U A16G G29A | 0.01
147 | A4U A6G C8G G40U | 0.06
148 | A4U G29U U32A G33U | 0.03
149 | A4U U9G G29A | 0.05
150 | A4U C10G C23U C31A G44C | 0.01
151 | A4G G7A C10U C23G C31U U43G | 0.03
152 | A4U C23G G36C | 0.1
153 | G5A A6C G21C | 0.05
154 | A4U G7C C13U G17U G21C C23U | 0.17
155 | A4U U28C G44U | 0.09
156 | A4U C23A G35A | 0.04
157 | A4U G5U G29U | 0.02
158 | A4U A11C G22A C42G | 0.03
159 | A4U A11U A12C C15U G29C U38C A39G | 0.01
160 | A4U A6G G7A G33C | 0.02
161 | A4U U9A C13A C15U A26U G29U U34G G44C | 0.26
162 | G5A A11G G36A | 0.04
163 | A4U A11G A26C | 0.01
164 | A4U A6U U9A A16C C18U G27U | 0.17
165 | A4U A12C A16U G40U A41G G44C | 0.01
166 | A4G C18G G36A | 0.02
167 | G5A A6G C45U | 0.28
